# Measurements as given in PubChem BioAssay AID488969 (Vanderbilt High Throughput Screening Facility, 2010).
# The full ranking holds about 110,000 compounds; the median of “z-score” is about -0.1, and the highest 2% start at about 2. The list shows a part of the results. Active and inactive are the calls of the source.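 The calls were made as follows: active = z-score in the third read window above 3 or below -3; inactive = the rest.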
# Target: Metabotropic glutamate receptor 8 (Rattus norvegicus) (UniProt P70579)
# Assay: rat mGluR8 modulators via GIRK flux, primary screen, cell-based, thallium flux, HTS (AID 488969)
# Conditions: HEK293 rat mGluR8, GIRK (G protein-gated inwardly rectifying potassium channel) thallium flux, FluoZin2; at 10 µM; stronger effect = higher value; submaximal glutamate (EC20) added with thallium
# Chain of UniProt P70579 (P70579 whole entry, looked up): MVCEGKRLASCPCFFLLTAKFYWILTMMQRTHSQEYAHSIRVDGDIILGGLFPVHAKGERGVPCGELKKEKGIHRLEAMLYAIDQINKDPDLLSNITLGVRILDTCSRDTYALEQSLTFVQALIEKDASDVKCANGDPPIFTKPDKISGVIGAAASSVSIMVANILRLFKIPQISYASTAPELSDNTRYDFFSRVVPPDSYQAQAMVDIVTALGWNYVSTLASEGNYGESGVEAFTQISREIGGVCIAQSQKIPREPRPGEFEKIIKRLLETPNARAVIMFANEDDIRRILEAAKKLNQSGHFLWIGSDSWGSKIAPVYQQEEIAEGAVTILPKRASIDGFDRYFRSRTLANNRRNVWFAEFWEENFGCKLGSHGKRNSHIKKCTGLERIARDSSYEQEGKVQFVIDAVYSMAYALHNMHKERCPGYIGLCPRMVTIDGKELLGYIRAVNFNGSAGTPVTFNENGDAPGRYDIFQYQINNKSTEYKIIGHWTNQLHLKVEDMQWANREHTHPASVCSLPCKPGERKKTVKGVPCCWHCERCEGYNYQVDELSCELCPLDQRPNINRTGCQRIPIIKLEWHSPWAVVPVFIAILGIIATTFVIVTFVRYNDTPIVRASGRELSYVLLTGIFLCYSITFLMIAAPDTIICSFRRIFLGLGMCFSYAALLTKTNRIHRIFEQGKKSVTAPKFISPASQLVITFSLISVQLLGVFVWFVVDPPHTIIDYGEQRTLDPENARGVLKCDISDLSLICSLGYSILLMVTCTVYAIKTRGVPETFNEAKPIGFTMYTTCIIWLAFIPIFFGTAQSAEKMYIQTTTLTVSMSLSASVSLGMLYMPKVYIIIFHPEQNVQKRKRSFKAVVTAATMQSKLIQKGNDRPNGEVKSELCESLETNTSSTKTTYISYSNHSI
row,SMILES,z-score
1,O=C(c1ccc(Cn2c(=O)[nH]c3ccccc3c2=O)cc1)N1CCN(c2ccccc2)CC1,-0.342
2,CCOC(=O)N1CCN(C(=O)Cn2c(C)cc3ccccc3c2=O)CC1,0.171
3,Cc1ccc(C)c(N/N=C2\CCCNC2=O)c1,-0.226
4,CCc1c(O)nc(N2CCN(Cc3ccccc3)CC2)[nH]c1=O,0.961
5,CN1CCc2c(OCC(=O)N3N=C(c4cccs4)CC3c3ccc(F)cc3)cccc2C1=O (centres undefined),-0.343
6,COc1ccc(/C=C/C(=O)c2ccc(NS(=O)(=O)c3ccc(C)cc3)cc2)cc1O,-0.47
7,COc1ccc(OC)c(NC(=O)c2nnn(Cc3ccc(Br)cc3F)c2N)c1,-0.452
8,Cc1noc(C)c1CSc1nnc2sc3ccccc3n12,-0.648
9,CCCn1c(NCc2ccco2)nc2c1c(=O)n(C)c(=O)n2C,-0.0985
10,COC(=O)C1=C(C)NC2=C(C(=O)C(C(=O)OC)C(c3ccc(OC)cc3)C2)C1c1ccccn1 (centres undefined),0.317
11,CCOC(=O)c1c(NC(=O)COc2ncnc3ccccc23)sc(C)c1CC,-0.192
12,COc1ccc(-c2nn[nH]n2)cc1OC,0.0499
13,CCOc1ccc2[nH]c(=O)c(CN(Cc3ccco3)C(=O)c3cccc(F)c3)cc2c1,-0.241
14,CC(C)c1cc(C(N)=O)c(NC(=O)c2cccc(COc3ccc(Br)cc3)c2)s1,-0.147
15,O=C1CN(C(=O)COC(=O)c2ccc(N3CCCCCC3)c([N+](=O)[O-])c2)c2ccccc2N1,0.0607
16,CC12CCC(C(=O)Nc3cc(Cl)ccc3Cl)(C(Br)C1=O)C2(C)C (centres undefined),-0.159
17,CCn1cc(C(=O)NCCC2=CCCCC2)c(=O)c2cc(S(=O)(=O)N(C)C)ccc21,-0.515
18,CCOC(=O)N1CCN(Cc2nc3c(c(=O)n(C)c(=O)n3C)n2Cc2ccccc2C)CC1,-0.27
19,CCN=c1scc(-c2ccccc2)n1/N=C/c1ccccn1,-0.0993
20,FC(F)(F)c1ccc(Oc2ccc3cc(Br)ccc3c2)nc1,0.226
21,COc1ccc2c(c1)OC/C(=C/c1cccs1)C2=O,0.0336
22,S=c1[nH]cc(-c2ccccc2)n1-c1ccccc1,0.267

row,SMILES,z-score
1,CCn1c(=O)n(-c2ccc(Cl)cc2)c(=O)c2c3c(sc21)COC(C)(C)C3,-1.07
2,C=CCOc1ccc(/C(O)=C2\C(=O)C(=O)N(CCOC)C2c2cccnc2)cc1 (centres undefined),-0.0824
3,CN(C)c1nc2sc3c(c2c(=O)n1C)CC(C)(C)OC3,0.532
4,COc1ccc([N+](=O)[O-])cc1NS(=O)(=O)c1ccccc1,-0.8
5,Nc1nc(-c2cccnc2)nn1C(=O)COc1ccccc1,-0.135
6,COc1ccccc1N1CCN(Cc2nnnn2CCc2ccccc2)CC1,-0.0559
7,CCOc1ccccc1C1C2CCCCC2(O)CCN1C(=O)c1cccs1 (centres undefined),-0.578
8,CCOC(=O)C1=C(N)Oc2c(c(=O)[nH]c3ccccc23)C1c1ccccc1 (centres undefined),-0.487
9,COc1cc(NC(=O)c2ccco2)c(OC)cc1NC(=O)Nc1ccc(Cl)cc1,-0.139
10,O=C(CSc1nc2c(cnn2-c2ccc(F)cc2)c(=O)[nH]1)N1CCOCC1,0.476
11,O=C(Nc1nnc(-c2ccc3c(c2)CCCC3)o1)C1CCCCC1,-0.309
12,Cc1cccc(NC(=O)CSc2nnc(-c3ccccc3)n2N)c1C,0.2
13,OC(COc1ccc(C2C=CCC2)cc1)CN1CCCCC1 (centres undefined),1.19
14,CCN1CCN(c2c(Cl)cccc2NC(=O)c2ccco2)CC1,-0.163
15,CCc1ccc(C(=O)CSc2n[nH]c(-c3ccncc3)n2)cc1,-0.0279
16,COc1ccc(-c2noc(C3CCCN(S(=O)(=O)c4ccc(C)c(Cl)c4)C3)n2)cc1OC (centres undefined),-0.0247
17,CN(CC(=O)Nc1ccccc1C(=O)N1CCCC1)S(=O)(=O)c1ccc(Br)cc1,-0.477
18,COc1cc(-n2c(=O)c3ccccc3n(Cc3ccccc3)c2=O)cc(OC)c1OC,-0.047
19,COc1ccccc1N1CC(O)=C(c2nc3ccccc3c(=O)[nH]2)C1=N,-0.243
20,COc1ccccc1C(=O)OCc1c(F)cccc1Cl,-0.429
21,CCOc1ccc2cc(C(=O)c3ccccc3)c(=O)oc2c1,-0.201
22,Cc1ccc(S(=O)(=O)NCc2ccc(C(=O)N3CCN(Cc4ccccc4)CC3)cc2)cc1,0.979

row,SMILES,z-score
1,COCCN1C(=O)c2ccccc2C(C(=O)N2CCN(c3ccccn3)CC2)C1c1ccc(F)cc1 (centres undefined),-0.0819
2,Cc1nc(NC2=NCN(CC3CCCO3)CN2)nc2ccccc12 (centres undefined),0.234
3,C=CCn1c(SCCOc2ccccc2)nnc1C(C)NC(=O)c1ccccc1 (centres undefined),-0.293
4,COc1ccc(S(=O)(=O)c2ccc(O)cc2)cc1,-0.766
5,O=C(CC1(O)C(=O)Nc2ccccc21)c1ccccc1 (centres undefined),-0.202
6,Cc1cc(C)c(NC(=O)c2ccccc2CCc2ccccc2)c(C)c1,-0.209
7,C=CCOc1ccc(CNC(C)(C)CO)cc1OC,0.0461
8,CCCOc1ccc(C(C)=O)cc1CC(C(N)=O)C(N)=O,-0.278
9,COc1ccc(-c2nnc3sc(-c4ccco4)nn23)cc1OC,0.194
10,O=C(Cn1ncc2c(=O)oc3ccccc3c21)NCC1COc2ccccc2O1 (centres undefined),-0.548
11,CCOC(=O)CSc1nn(C)c(=S)s1,0.114
12,Cn1c(SCC(=O)NC2CCCCC2)nnc1-c1cccc(N)c1,0.142
13,O=C(NC1CCS(=O)(=O)C1)/C(=C\c1ccccc1)NC(=O)c1ccccc1 (centres undefined),-0.336
14,CCCN1C(=O)C(Cc2nc3ccccc3c(=O)n2C)c2ccccc21 (centres undefined),0.507
15,CCN(CC)S(=O)(=O)c1cccc(-c2nnc(-c3ccc(C)cc3)o2)c1,-0.118
16,COc1ccc(N2C(=O)CC(n3c(CCCCO)nc4ccccc43)C2=O)cc1 (centres undefined),0.0715
17,CO/N=C/c1ccc(Sc2ccc(C)cc2)c([N+](=O)[O-])c1,-0.349
18,Cc1[nH]c(=O)[nH]c(=O)c1S(=O)(=O)N1CCN(c2cccc(Cl)c2)CC1,0.557
19,CCN1C=C(Cc2ccc(F)cc2)C2=C(C1)C(c1ccc(F)cc1)C(C#N)=C(N)O2 (centres undefined),-0.0952
20,CNC(=S)N1N=C(c2ccccc2)CC1c1ccc(OC)c(OC)c1 (centres undefined),-0.0108
21,O=C(CS(=O)(=O)c1cn(Cc2ccccc2Cl)c2ccccc12)N1CCOCC1,-0.195
22,CCCCC1CCC(c2ccc(C(N)=O)cc2)CC1 (centres undefined),0.227

row,SMILES,z-score
1,Cc1ccc(NS(=O)(=O)c2cc(C(=O)N3CCN(C)CC3)ccc2C)cc1,0.0202
2,Cc1c(/C=N/NC(=O)c2ccc(O)cc2)c2ccccn2c1C(=O)c1ccc(F)cc1,-0.233
3,O=C(NCCOc1ccccc1)C(c1ccccc1)c1ccccc1,-2.15
4,CC1=NN(C(=O)Cc2ccc(C)cc2)C(O)(c2cccnc2)C1 (centres undefined),0.145
5,O=C(CCS(=O)(=O)c1ccc(Cl)cc1)N1CCN(S(=O)(=O)c2cccs2)CC1,0.373
6,O=C(NCCSCc1ccco1)Nc1ccc(Cl)cc1,0.159
7,CCCc1nc(SCC(=O)NNC(=O)C2CCCCC2)c2ccccc2n1,-0.121
8,CC(C)Oc1ccc(N2CC(C(=O)OCC(=O)NCc3ccccc3)CC2=O)cc1 (centres undefined),-0.0828
9,O=C1C(c2ccc(F)cc2)N(Cc2ccc3c(c2)OCO3)C(=O)CN1C1CCCC1 (centres undefined),-0.315
10,COc1ccc(CNC(=O)CN(C2CCCCC2)S(C)(=O)=O)cc1,0.463
11,O=C(CCC(=O)N1CCN(S(=O)(=O)c2ccc(Cl)cc2)CC1)Nc1ccc2ccccc2c1,-0.149
12,Cn1nc(C(F)(F)F)c(C#N)c1N1CCN(c2ccccc2)CC1,-1.42
13,COc1ccccc1-n1c(C)nnc1SCC(=O)Nc1cc(C)cc(C)c1,0.0631
14,CN(CC(=O)NCCN1CCN(c2ccccc2)CC1)S(=O)(=O)c1ccc2c(c1)CCC(=O)N2,0.291
15,CC1CCN(C(=O)c2ccc(S(=O)(=O)N(C)C)cc2)C(C)C1 (centres undefined),-0.425
16,CCN(CC)CCN=CC1=C(O)CNC1=O,-0.881
17,Cc1ccc(C(=O)NC(C)(COc2nonc2C)COc2nonc2C)cc1,-0.0583
18,Cn1cc(Cl)c(C(=O)N2CCN(c3ncccn3)CC2)n1,0.139
19,Cc1ccc(C(=O)NC(NC(=S)Nc2ccc(S(N)(=O)=O)cc2)C(Cl)(Cl)Cl)cc1 (centres undefined),-0.106
20,O=C(CSc1nc2ccccc2s1)Nc1ccc2c(c1)oc1ccccc12,-0.268
21,COCCn1c(SCC(=O)NCc2ccco2)nc2cccnc21,0.0661
22,CC(=O)C(C)Oc1ccc2c3c(c(=O)oc2c1)CCCCC3 (centres undefined),-0.267

row,SMILES,z-score
1,CCS(=O)(=O)Nc1cc(-c2nc3cccnc3s2)ccc1C,-0.386
2,CCN(CC)c1cc(C)c2cc(NC(=O)c3ccc(Br)o3)ccc2n1,-0.522
3,CC1=NOC(=O)/C1=C\c1ccc(-c2cc(Cl)ccc2Cl)o1,0.406
4,CS(=O)(=O)N1CCC(C(=O)Nc2ccc(Cl)c(C(F)(F)F)c2)CC1,-0.153
5,COc1cccc(N2CCN(c3c4c(nc5ncnn35)CCC4)CC2)c1,active: 5.19
6,CCN(CC)C(=O)C(=O)c1cccn1-c1cccc(Cl)c1C#N,0.32
7,CCOC(=O)NC(=O)CSc1ccccn1,-1.84
8,CC(C)(C)c1cn(-c2ccc(F)cc2)c(=S)[nH]1,0.329
9,O=C(c1cc2ccccc2o1)N1CCCCCC1,-0.185
10,O=C(CSc1ccccc1)Nc1cccc(NC(=O)c2ccco2)c1,-0.237
11,CC(=O)N1c2ccc(Cl)cc2C2C=CCC2C1c1cccc2ccccc12 (centres undefined),-0.185
12,CCOC(=O)c1[nH]c(C)c(C(=O)Nc2ccc(Cl)cc2)c1C,-0.232
13,COc1cc(CNCCc2ccc(F)cc2)ccc1OCc1ccc(Cl)nc1,0.172
14,O=C(N/N=C/c1ccco1)c1cccc(N2CCCC2=O)c1,0.0141
15,O=C(CSc1ccsc1[N+](=O)[O-])NCCc1ccc(Cl)cc1,0.0211
16,O=C(NCc1ccc2c(c1)OCO2)C1CCCN(S(=O)(=O)c2cccc3cccnc23)C1 (centres undefined),-0.38
17,COCCn1c(SCC(=O)Nc2ccc(S(=O)(=O)N(C)C)cc2)nc2ccccc21,-0.813
18,O=C(COC(=O)/C=C/c1nc2ccccc2s1)Nc1cccc2ccccc12,-0.127
19,COc1ccc(NC(=O)CSc2c(C)n[nH]c2C)cc1,0.316
20,COc1c(Cl)cc(Cl)cc1CNCCNCCO,0.598
21,Cc1nonc1NCn1nnc2ccccc21,-0.0556
